The results in this text go back to patent publication US20250057158A1 (priority 2021, published 2025).

For this data set, the system named is cucumber bacterial leaf blight (Pseudomonas syringae pv. lachrymans). Particulars: treatment 7 days and 1 day before pathogen; for growth inhibition of cucumber / control value, cucumber bacterial leaf blight: vs untreated group; for disease severity (score 0 to 5), cucumber bacterial leaf blight: 7 days after pathogen, water control group 4.4; for control value, cucumber bacterial leaf blight: from disease severity.

With `CSC(=O)c1cccc2nnsc12` [BTH, benzo(1,2,3)-thiadiazole-7-carbothioic acid S-methyl ester, reference compound], the “growth inhibition of cucumber” value is recorded as “growth were inhibited”.

With `CC[C@H](C)[C@H](N)C(=O)O` [isoleucine], the “disease severity (score 0 to 5), cucumber bacterial leaf blight” value is 3.6; the “control value, cucumber bacterial leaf blight” value is recorded as 18%; the “growth inhibition of cucumber” value is recorded as “no growth inhibition phenomenon was observed”.

For the compound `CC(C)[C@H](N)C(=O)O` [valine], the “disease severity (score 0 to 5), cucumber bacterial leaf blight” value is reported as 2.7; the “control value, cucumber bacterial leaf blight” value turned out to be 39%; the “growth inhibition of cucumber” value is reported as “no growth inhibition phenomenon was observed”.
